# The list shows a part of the results.
# Tested on: T1, C. trachomatis L2/434/Bu expressing GFP (CTL2-GFP)
# T1 construct: L2/434/Bu GFP intracellular growth in HeLa cells
# Parameters: species or system HeLa; C. trachomatis total inclusion area by high-content imaging, normalised to DMSO
# Settings: total inclusion area; 28.5 h, 10 µM; inhibitor
# Summary of the method: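 Bulk GFP and resorufin signals were read first. Wells were then fixed, stained with Hoechst and imaged to detect GFP inclusions and host nuclei. MICs followed the previously described calculation.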
row,SMILES,% of control remaining
1,CSCCC(=O)Nc1ccc2c(ccn2Cc2ccccc2)c1 [CBK159732],39.6042
2,Cc1ccc(NC(=O)C(=O)NCCCn2ccnc2)cc1C [CBK264157],117.593
3,Cn1c(SCCCN2C(=O)c3cccc4cccc(c34)C2=O)nnc1-c1ccncc1 [CBK268951],100.629
4,COc1ccc(/C=C/c2nc3ccccc3s2)cc1S(=O)(=O)N1CCOCC1 [CBK269373],96.5358
5,CC[C@@H](Cn1ncc2ccccc2c1=O)NC(=O)CC1c2ccccc2Oc2ccccc21 [CBK286174],115.094
6,O=C(c1cnc2ccccc2c1)N1CCc2ccccc21 [CBK200284],117.419
7,N#Cc1c(N)nc(SCC(=O)O)c(C#N)c1-c1ccc(O)cc1 [CBK261270],103.396
8,O=C(O)CC1SC(N/N=C/c2ccco2)=NC1=O (stereo not shown) [CBK261371],89.9176
9,COc1ccc(Nc2cn(C)nc2C(=O)O)cc1 [CBK269814],69.6302
10,COc1ccc(NC(=O)CSc2nc(O)cc(-c3ccccc3)n2)cc1OC [CBK263657],110.937
11,O=C(O)c1ccc(N2C(=O)CC(N3CCN(Cc4ccccc4)CC3)C2=O)cc1 (stereo not shown) [CBK261403],90.241
12,COC(CNC(=O)N(C)Cc1nncn1C(C)C)c1cccs1 (stereo not shown) [CBK306556],69.2884
13,CCn1c(C)nc2cc(C(=O)NC3CCCOC3)ccc21 (stereo not shown) [CBK282066],104.733
14,O=S(=O)(Nc1nnn[nH]1)c1ccc(-c2ccccn2)s1 [CBK062589],85.2262
15,CC(C)(C)OC(=O)NCCNC(=O)c1cccnc1NCc1ccc2c(c1)OCO2 [CBK160117],97.748
16,OCCN1CCN(c2cncc(-c3cccc(OC(F)(F)F)c3)n2)CC1 [CBK065941],84.1156
17,O=C(O)C1C2C=CC(C2)C1C(=O)N1CCc2ccccc21 (stereo not shown) [CBK286537],143.246
18,COc1ccc(Cl)cc1NC(=O)CSc1nc2cc3ccccc3cc2[nH]1 [CBK268410],40.7484
19,Cc1ccc(C2C(C(=O)c3ccccc3)=C(O)C(=O)N2CCC(=O)O)cc1 (stereo not shown) [CBK286642],62.5321
20,Cc1cc(NC(=O)CN(C)c2ncccc2C#N)no1 [CBK304182],97.9398
21,CCN(CC)C(=O)c1[nH]c2ccccc2c1NS(=O)(=O)Cc1ccccc1 [CBK050107],76.6338
22,COc1ccnc(N2CCN(C(=O)c3cnn(C)c3)CC2)n1 [CBK306125],46.1175
23,COc1cc(/C=C2/C(=O)N(c3ccc(Cl)c(C(=O)O)c3)N=C2C)ccc1Oc1nc2c(c(=O)n(C)c(=O)n2C)n1C [CBK262962],104.426
24,CC(=O)Nc1ccc(S(=O)(=O)Nc2ccc(CC#N)cc2)cc1Cl [CBK044058],83.863
25,CC(=O)Nc1ccc(-c2cccc(COC3CCN(C(=O)Cc4c[nH]cn4)CC3)c2)cc1 [CBK149497],101.365
26,COc1ccc(C(=O)[C@@H]2CCCC[C@H]2N)cc1 [CBK023040C],114.05
27,Cc1ccccc1OCc1nc(C#N)c(NCc2ccc3c(c2)OCO3)o1 [CBK073372],100.805

row,SMILES,% of control remaining
1,O=C(Cn1nc(C(=O)O)c2ccccc2c1=O)c1ccc(S(=O)(=O)N2CCOCC2)cc1 [CBK296939],65.4943
2,CN(Cc1ccccc1)Cc1ccccc1O [CBK261879],93.8605
3,CN1CCN(c2ccc(C(=O)NC3CCCC3)cc2)CC1 [CBK200119],107.19
4,COc1ccc(CNC(=O)C[C@@H]2[C@H](O)CCC3[C@]4(C)CO[C@@H](CN)O[C@@H]4CC[C@]32C)cc1 (stereo partly shown) [CBK289575],114.235
5,CN(C)CCCNc1ccc(C(F)(F)F)cn1 [CBK269414],121.185
6,CN1C[C@@H](NC(=O)Nc2ccccc2)C[C@H]1c1nc(-c2ccccc2)no1 [CBK288877],101.743
7,CC(C)(C)OC(=O)N1Cc2ccccc2C[C@H]1C(=O)N1CCC(C(=O)O)CC1 [CBK286761],90.664
8,COc1ccc(-c2cc(=O)n3cc[nH]c3n2)cc1 [CBK006659],95.2544
9,COc1ccc(C2(CN3CCC(NC(C)=O)CC3)CCCC2)cc1 [CBK283241],94.7343
10,COCCN1C(=O)C2(CC(=O)N(CCNS(C)(=O)=O)C2=O)c2cc(C)ccc21 (stereo not shown) [CBK075479],73.6479
11,Fc1ccc2c3c([nH]c2c1)C1(CCN(Cc2cc(F)c(F)c(F)c2)CC1)NCC3 [CBK039688],69.8194
12,CN(C)c1ncccc1OC1CCN(c2ccnc(C3CC3)n2)C1 (stereo not shown) [CBK306182],1.704
13,O=C(c1nccs1)C1CCN(C(=O)Cc2ccc(Cl)cc2)CC1 [CBK284160],83.8339
14,Cc1ccc(NC(=O)c2cnc3scc(C)n3c2=O)cc1C [CBK287461],73.2992
15,O=C(CCn1c(C(F)F)cc2cccnc21)N1CCCC(CO)C1 (stereo not shown) [CBK284985],103.42
16,CC(C)(CN)CN(Cc1ccncc1)C(=O)Nc1ccc(C(C)(C)C)cc1 [CBK002459C],73.8853
17,CCNC(=O)N(C)c1c(CC)nc2ccc(C(=O)N3CCN(C(C)=O)CC3)cn12 [CBK146362],103.939
18,Cc1ccc(S(=O)(=O)c2ccc(C)c(S(=O)(=O)NC3CCCCC3)c2)cc1S(=O)(=O)NC1CCCCC1 [CBK261653],110.213
19,O=S(=O)(Nc1cccc(Cl)c1Cl)c1cccc2nsnc12 [CBK067296],67.29
20,COc1cc(OC)nc(Oc2ccccc2C(=O)O)n1 [CBK092218],103.539
21,Cc1nn(C)c(C)c1CN1CCN(C(=S)Nc2ccc(S(N)(=O)=O)cc2)CC1 [CBK267030],114.19
22,COc1ccc(C(NC(=O)[C@H]2CCCN2C(=O)NCc2ccccc2C)c2ccccc2C)cn1 (stereo partly shown) [CBK075051],85.0797
23,CC1CN(C(=S)Nc2ccc(NC(=S)N3CC(C)OC(C)C3)cc2)CC(C)O1 (stereo not shown) [CBK004991],78.9724
24,Cc1nn(CC(=O)NC(C)C)c(=O)c2cc3sccc3n12 [CBK284048],103.662
25,CCc1ccc(-n2cc(-c3ccccn3)nn2)cc1 [CBK113137],114.539
26,O=C(Cn1cccc2cc(C3CCNCC3)nc1-2)N1CCCCCC1 [CBK284679],64.143
27,O=C(CSCc1ccc(Cl)cc1Cl)Nc1cccc(O)c1 [CBK131702],87.6929

row,SMILES,% of control remaining
1,CC(=O)Nc1nc(C(=O)N2CCOC(c3ccc(F)cc3)C2)cs1 (stereo not shown) [CBK244238],23.0327
2,Cc1nnc(CNC(=O)c2cc(-c3ccc(Cl)cc3)nc3ccccc23)o1 [CBK297717],73.6044
3,CC1CCCCN1CC(C)(C)NC(=O)c1cc(C2CC2)on1 (stereo not shown) [CBK281676],100.451
4,COc1ccc(-c2c[nH]c([C@@H]3COCCN3Cc3csnn3)n2)cc1 [CBK289297],122.809
5,Cc1cn(CC(=O)N2CCCC3(CCN(C(=O)c4cc(F)c(F)cc4F)C3)C2)c(=O)[nH]c1=O (stereo not shown) [CBK131561],72.6314
6,O=C(Nc1cc(N2CCCS2(=O)=O)ccc1Cl)c1cc[nH]n1 [CBK306249],45.5094
7,COc1cccc(C(=O)Nc2ccc(NC(=O)C3CC=CCC3C(=O)O)cc2)c1 (stereo not shown) [CBK266316],106.659
8,Cc1nccn1CC1(O)CCN(Cc2ccc(F)c(F)c2)CC1 [CBK284955],83.8959
9,CCCn1nc(C)c(-c2cncn2CCn2nc(C)c(C)c2C)c1C [CBK281444],94.3636
10,CCc1nsc(N2CCC(Oc3cccnc3N(C)C)C2)n1 (stereo not shown) [CBK304498],67.9955
11,COc1ccc(C(=O)N2CCC3(CCCN(C(=O)CCSC)C3)C2)cc1OC (stereo not shown) [CBK131661],94.6931
12,CC(C)NC(=O)N[C@H]1CCN2C(=O)c3ccc(Cl)cc3NC(=O)[C@H]12 [CBK289343],98.4577
13,Cc1noc(C)c1C[S+]([O-])c1ccc(Br)cc1 (stereo not shown) [CBK034195],129.891
14,CC(NC(=O)c1ccc(-n2ccnc2)c(-n2cccc2)c1)c1ccco1 (stereo not shown) [CBK284808],112.041
15,COCc1cccc(-c2nccnc2Oc2cccc(OC)c2)c1 [CBK106958],72.9666
16,CC(C)(C)OC(=O)N1CCC(C2OCc3cc(-c4ccc(S(C)(=O)=O)cn4)ccc3O2)CC1 (stereo not shown) [CBK173326],75.5705
17,CN1C(=O)COc2ccccc2C/C=C/C[C@H]2NCCC[C@H]21 [CBK292156],116.116
18,CC(=O)NC(NC(=S)Nc1sc2c(c1C(N)=O)CCCC2)C(Cl)(Cl)Cl (stereo not shown) [CBK261054],92.6105
19,CC(C)(C)C(=O)CSc1nnc(-c2ccccc2)n1Cc1ccccc1 [CBK264960],99.579
20,CCC(NC(=O)c1ccc(C(C)(C)C)[nH]c1=O)c1ccc(OC)cc1 (stereo not shown) [CBK282940],106.156
21,O=C(Cn1nnc2ccccc21)N/N=C\c1cccc(Cl)c1Cl [CBK262931],45.969
22,CCN(CC)C(=O)CN1CCC(c2ccccc2F)CC1 [CBK283549],98.3549
23,CC1(C)SC(NCC2CCCCC2)=NC1=O [CBK067808],128.918
24,Cc1noc(C)c1S(=O)(=O)Nc1ccc2[nH]ncc2c1 [CBK062518],95.2984
25,COc1cc(NC(=O)NCCc2cccs2)cc(OC)c1OC [CBK043347],67.2284

# Reference: publication PMC12040169 (PLOS Biology, 2025)
